From the supplement of paper PMC12217912
This is one part of the list. Sequences were assembled here from the parent chain. Values near 0.05 are background.

B1: TEV protease; numbered along this chain (parent)
chain: MGESLFKGPRDYNPISSSICHLTNESDGHTTSLYGIGFGPFIITNKHLFRRNNGTLVVQSLHGVFKVKDTTTLQQHLVDGRDMIIIRMPKDFPPFPQKLKFREPQREERICLVTTNFQTKSMSSMVSDTSCTFPSGDGIFWKHWIQTKDGQCGSPLVSTRDGFIVGIHSASNFTNTNNYFTSVPKNFMELLTNQEAQQWVSGWRLNADSVLWGGHKVFMVKPEEPFQPVKEATQL

Variants of: B1
Assay: raw area under fraction-flipped curve 0-4 h after induction (AUC4h, not background-subtracted), DNA-recorder readout of cleavage of the substrate (dimensionless); higher = more cleavage of the substrate by the protease variant
Details: temperature: 34 °C; time window: 0-4 h after rhamnose induction
Description: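 In vivo DNA recorder in E. coli TOP10(DE3) ΔrhaA at 34 °C. Each TEVp single-site mutant (parent TEVp 0) is paired with a single-site variant of the 7-mer TEVs (canonical ENLYFQ|S). The substrate sits between flexible linkers in a Bxb1-sfGFP-TEVs-SsrA fusion, so cleavage stabilises Bxb1 and speeds flipping of a recombination array, read by NGS. The value is the raw area under the fraction-flipped curve over 0-4 h after rhamnose induction (AUC4h), with ≥20 reads per time point. It is not background-subtracted; inactive controls average about 0.047.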
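Also: Bxb1 expression induced with 0.2% (w/v) L-rhamnose at OD600 near 0.5, cultures sampled hourly, flipped fraction per protease–substrate barcode pair counted by paired-end Illumina sequencing.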

Variant	area with substrate ENLYFQA	area with substrate ENLYFQC	area with substrate ENLYFQD	area with substrate ENLYFQE	area with substrate ENLYFQF	area with substrate ENLYFQG	area with substrate ENLYFQI	area with substrate ENLYFQK	area with substrate ENLYFQL	area with substrate ENLYFQM	area with substrate ENLYFQN	area with substrate ENLYFQP	area with substrate ENLYFQQ	area with substrate ENLYFQR	area with substrate ENLYFQS	area with substrate ENLYFQT	area with substrate ENLYFQV	area with substrate ENLYFQW	area with substrate ENLYFQY	area with substrate ENLYFQH
L61C	0.113	0.103	0.0829	0.0715	0.0837	0.0952	0.0571	0.0617	0.069	0.0849	0.131	0.0601	0.0591	0.0573	0.103	0.0665	0.064	0.065	0.0753	
F117L	0.101	0.149	0.0884					0.0757	0.0524		0.0746	0.0835	0.0946	0.0489	0.102	0.0555	0.0552	0.0624		0.088
E223Q	0.0813			0.0525			0.059	0.0683	0.0773	0.104					0.104	0.0628				
D208Y	0.0609	0.0517	0.0618	0.0687	0.0587		0.0439	0.0571	0.0559	0.0763	0.0551	0.053	0.0507	0.0618	0.0732	0.0572	0.0512	0.0532	0.0607	0.05
D208F	0.0592	0.0703				0.0665	0.0632	0.0601	0.0588	0.0806	0.0683	0.0375	0.0648	0.0547	0.0707	0.0634	0.0375		0.0765	0.0619
K216A	0.0677	0.126				0.0823		0.0612	0.0599						0.09	0.0448				
F95Y	0.102	0.111						0.0668	0.0403	0.0685	0.0785				0.0998		0.049	0.0587		0.0757
R102G	0.0524	0.0615		0.05			0.0585	0.0565	0.051	0.0566	0.0528			0.0544	0.0604	0.0449	0.0511	0.0448	0.0627	
T176P	0.0523	0.0805	0.0459		0.0563	0.0625		0.0527	0.044	0.0632	0.0576			0.0558	0.0626	0.0655				0.0628
L48P	0.0565	0.0546	0.0623	0.0465		0.0607	0.0564	0.0595	0.0587	0.065		0.0527		0.0581	0.0602	0.0578	0.0673	0.0471		
L48D	0.0591	0.0813	0.0495			0.0656	0.0629	0.0575	0.056	0.0627	0.0661	0.0557	0.0641	0.0654	0.0613	0.0588	0.0654		0.0594	
L56A	0.0784	0.0877	0.0595		0.0732			0.0582	0.0688	0.0662				0.0579	0.076	0.0512			0.0292	0.0545
L56H	0.048	0.0496	0.0543						0.0331	0.0488	0.0412		0.0481	0.0732	0.0466	0.0436				
L56F	0.004	0.0828	0.0654	0.0698	0.0678		0.0746	0.0774	0.0636	0.0799	0.0768	0.0535		0.061	0.0902	0.0468	0.0555	0.0664		0.0851
W212E	0.112	0.121		0.0381		0.0659	0.0728	0.0787		0.0537	0.0567			0.0707	0.073	0.0591	0.0477	0.0514	0.0644	0.074
S4L	0.0683	0.0766	0.0674		0.0604	0.0731	0.0557	0.0608	0.063	0.0649	0.0696	0.0512		0.0628	0.0747	0.0633	0.0612	0.0693	0.0633	0.0814
L235H	0.094	0.0967			0.0825		0.0614	0.0611	0.127		0.0886	0.0514			0.109	0.0545				0.0759
H168T	0.04	0.0605					0.0624		0.0601	0.0529	0.0593			0.0705	0.0611			0.0461		0.0549
N186V	0.0886							0.0599	0.0526	0.0787	0.0619	0.0739		0.0604	0.0867		0.063			0.0854
A207S	0.122		0.0974	0.0739	0.0804	0.0987	0.0414		0.0547	0.108	0.0707	0.0508		0.0631	0.109	0.0678		0.0817	0.0669	0.0888
Y12V	0.0802	0.128		0.042		0.106	0.0545	0.064	0.0553	0.0765	0.0727		0.0782	0.0518	0.107	0.0629	0.0633	0.0691	0.0763	0.0758
Y12Q	0.0752	0.103			0.0809	0.0834	0.0558	0.0685	0.0521	0.0892	0.0702	0.0587		0.056	0.106	0.0629	0.0517	0.064		0.11
R204I	0.0789	0.117	0.0717		0.0656	0.0931	0.0648	0.0654	0.0735	0.0862	0.0728	0.0514	0.0986	0.0615	0.108	0.0613	0.0851	0.0706	0.0789	0.079
I167E	0.052											0.0578			0.0515	0.0465	0.0731			
G80A	0.146	0.089					0.0708			0.1	0.0701	0.0945			0.101					
G80V	0.101	0.113				0.067	0.0576	0.0635	0.0592	0.111	0.0802	0.0519	0.0641		0.109	0.0672		0.0699	0.0634	
